# Assay results as given in the supplement of paper PMC10037445.
# “And” between values parts separate entries of the source, which are not always exact repeats. Identical values can stand only once. Whole data set: some 2,900 compounds, median “NF-kB SEAP reporter activity, fold change vs agonist alone” near 0.99, cut for the highest 2% near 2.6. The list shows a part of the results.
# Assays:
# RAW-Dual [1] = assay: NF-kB SEAP reporter activity, fold change vs agonist alone; higher = enhanced NF-kB activity
# Summary of the method: (§1)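 Reporter activity is given as fold change relative to agonist-alone wells. To measure it, 50 nL of library stock was pin-tooled onto RAW-Dual macrophages (50,000 cells/well, DMEM, 384-well plates), a PRR agonist followed 1 h later, and cells stayed at 37 °C, 5% CO2. Twenty hours on, supernatant was assayed for IRF (QuantiLuc luminescence) and NF-κB (QuantiBlue, 620 nm absorbance), and wells under 70% of agonist-control IncuCyte confluency in both mask sets were marked cytotoxic.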
# RAW-Dual [2] = assay: NF-kB SEAP reporter activity, fold change vs agonist alone; cytotoxicity flag (confluency mask): not cytotoxic; higher = enhanced NF-kB activity
# Summary of the method: as §1
# RAW-Dual [3] = assay: NF-kB SEAP reporter activity, fold change vs agonist alone; cytotoxicity flag (confluency mask): cytotoxic (confluency <70% of control); higher = enhanced NF-kB activity
# Summary of the method: as §1
# [4] = library stock concentration (final ~1000-fold dilution): 10 mM, cytotoxicity flag (confluency mask): not cytotoxic, agonist: Imiquimod (TLR7) […]
# [5] = library stock concentration (final ~1000-fold dilution): 10 mM, cytotoxicity flag (confluency mask): not cytotoxic, agonist: MPLA (TLR4) […]
# [6] = agonist: ODN 1826 (TLR9) 0.5 ug/mL
# [7] = agonist: Pam2CSK4 (TLR2/6) 0.1 ug/mL
# [8] = agonist: Pam3CSK4 (TLR2/1) 0.1 ug/mL
# [9] = library stock concentration (final ~1000-fold dilution): 10 mM, cytotoxicity flag (confluency mask): cytotoxic (confluency <70% of control), agonist: Imiquimod (TLR7) […]
# [10] = library stock concentration (final ~1000-fold dilution): 10 mM, cytotoxicity flag (confluency mask): cytotoxic (confluency <70% of control), agonist: MPLA (TLR4) […]
structure (smiles),measurement,setting,value
Cc1nc2ccc(NC(=O)Nc3ccnc4cccnc34)cc2o1,NF-kB SEAP reporter activity,RAW-Dual [1]; [4],1.06
same,NF-kB SEAP reporter activity,RAW-Dual [1]; [5],1.06
Oc1nc(-c2ccc(C(F)(F)F)cc2)nc2c1CSCC2 (library stock concentration (final ~1000-fold dilution): 10 mM),NF-kB SEAP reporter activity,RAW-Dual [2]; agonist: LPS (TLR4) 0.1 ug/mL,1.14
same,NF-kB SEAP reporter activity,RAW-Dual [2]; [6],1.09
same,NF-kB SEAP reporter activity,RAW-Dual [2]; [7],1.25
same,NF-kB SEAP reporter activity,RAW-Dual [2]; [8],1.92
Oc1nc(-c2ccc(C(F)(F)F)cc2)nc2c1CSCC2,NF-kB SEAP reporter activity,RAW-Dual [1]; [4],1.15
same,NF-kB SEAP reporter activity,RAW-Dual [1]; [5],1.07
NC(=O)N1c2ccccc2CC(=O)c2ccccc21 (library stock concentration (final ~1000-fold dilution): 10 mM),NF-kB SEAP reporter activity,RAW-Dual [2]; agonist: LPS (TLR4) 0.1 ug/mL,1.08
same,NF-kB SEAP reporter activity,RAW-Dual [2]; [6],0.937
same,NF-kB SEAP reporter activity,RAW-Dual [2]; [7],0.981
same,NF-kB SEAP reporter activity,RAW-Dual [2]; [8],0.93
NC(=O)N1c2ccccc2CC(=O)c2ccccc21,NF-kB SEAP reporter activity,RAW-Dual [1]; [4],0.767
same,NF-kB SEAP reporter activity,RAW-Dual [1]; [5],0.876
Cc1cccn2c(=O)c(-c3nnn[nH]3)cnc12 (library stock concentration (final ~1000-fold dilution): 10 mM water),NF-kB SEAP reporter activity,RAW-Dual [2]; agonist: LPS (TLR4) 0.1 ug/mL,1.13
same,NF-kB SEAP reporter activity,RAW-Dual [2]; [6],1.16
same,NF-kB SEAP reporter activity,RAW-Dual [2]; [7],1.21
same,NF-kB SEAP reporter activity,RAW-Dual [2]; [8],1.13
Cc1cccn2c(=O)c(-c3nnn[nH]3)cnc12,NF-kB SEAP reporter activity,"RAW-Dual [1]; library stock concentration (final ~1000-fold dilution): 10 mM water, cytotoxicity flag (confluency mask): not cytotoxic, agonist: Imiquimod (TLR7) […]",0.935
same,NF-kB SEAP reporter activity,"RAW-Dual [1]; library stock concentration (final ~1000-fold dilution): 10 mM water, cytotoxicity flag (confluency mask): not cytotoxic, agonist: MPLA (TLR4) […]",1.02
CCC(=O)OC1CC(=O)OC(C)C/C=C/C=C/C(O)C(C)CC(CC=O)C(OC2OC(C)C(OC3CC(C)(O)C(OC(=O)CC)C(C)O3)C(N(C)C)C2O)C1OC (configuration not stated) (library stock concentration (final ~1000-fold dilution): 10 mM),NF-kB SEAP reporter activity,RAW-Dual [2]; agonist: LPS (TLR4) 0.1 ug/mL,0.93
same,NF-kB SEAP reporter activity,RAW-Dual [2]; [6],1.02
same,NF-kB SEAP reporter activity,RAW-Dual [2]; [7],1.06
same,NF-kB SEAP reporter activity,RAW-Dual [2]; [8],1.21
CCC(=O)OC1CC(=O)OC(C)C/C=C/C=C/C(O)C(C)CC(CC=O)C(OC2OC(C)C(OC3CC(C)(O)C(OC(=O)CC)C(C)O3)C(N(C)C)C2O)C1OC (configuration not stated),NF-kB SEAP reporter activity,RAW-Dual [1]; [4],0.961
same,NF-kB SEAP reporter activity,RAW-Dual [1]; [5],1.07
CCOCCn1c(N2CCCN(C)CC2)nc2ccccc21 (library stock concentration (final ~1000-fold dilution): 10 mM),NF-kB SEAP reporter activity,RAW-Dual [2]; agonist: LPS (TLR4) 0.1 ug/mL,0.9
same,NF-kB SEAP reporter activity,RAW-Dual [2]; [6],0.825
same,NF-kB SEAP reporter activity,RAW-Dual [2]; [7],1.06
same,NF-kB SEAP reporter activity,RAW-Dual [2]; [8],0.705
CCOCCn1c(N2CCCN(C)CC2)nc2ccccc21,NF-kB SEAP reporter activity,RAW-Dual [1]; [4],0.877
same,NF-kB SEAP reporter activity,RAW-Dual [1]; [5],1.05
CC(C)(C)OC(=O)Nc1ccc(-c2cc(C(=O)NCCCCCCC(=O)NO)no2)cc1 (library stock concentration (final ~1000-fold dilution): 10 mM),NF-kB SEAP reporter activity,RAW-Dual [3]; agonist: LPS (TLR4) 0.1 ug/mL,6.9
same,NF-kB SEAP reporter activity,RAW-Dual [3]; [6],1.11
same,NF-kB SEAP reporter activity,RAW-Dual [3]; [7],1.33
same,NF-kB SEAP reporter activity,RAW-Dual [3]; [8],1.21
CC(C)(C)OC(=O)Nc1ccc(-c2cc(C(=O)NCCCCCCC(=O)NO)no2)cc1,NF-kB SEAP reporter activity,RAW-Dual [1]; [9],0.912
same,NF-kB SEAP reporter activity,RAW-Dual [1]; [10],1.81
Cc1nc(C)c(C)nc1C (library stock concentration (final ~1000-fold dilution): 10 mM),NF-kB SEAP reporter activity,RAW-Dual [2]; agonist: LPS (TLR4) 0.1 ug/mL,0.93
same,NF-kB SEAP reporter activity,RAW-Dual [2]; [6],0.963
same,NF-kB SEAP reporter activity,RAW-Dual [2]; [7],0.996
same,NF-kB SEAP reporter activity,RAW-Dual [2]; [8],1.02
Cc1nc(C)c(C)nc1C,NF-kB SEAP reporter activity,RAW-Dual [1]; [4],0.938
same,NF-kB SEAP reporter activity,RAW-Dual [1]; [5],0.943
CCS(=O)(=O)N1CCN(c2ccc(Nc3ncc(C(N)=O)c(NC4CC4)n3)cc2)CC1.Cl (library stock concentration (final ~1000-fold dilution): 10 mM),NF-kB SEAP reporter activity,RAW-Dual [3]; agonist: LPS (TLR4) 0.1 ug/mL,0.273
same,NF-kB SEAP reporter activity,RAW-Dual [3]; [6],0.218
same,NF-kB SEAP reporter activity,RAW-Dual [3]; [7],0.0746
same,NF-kB SEAP reporter activity,RAW-Dual [3]; [8],0.121
CCS(=O)(=O)N1CCN(c2ccc(Nc3ncc(C(N)=O)c(NC4CC4)n3)cc2)CC1.Cl,NF-kB SEAP reporter activity,RAW-Dual [1]; [9],0.23
same,NF-kB SEAP reporter activity,RAW-Dual [1]; [10],0.398
Cc1cc([N+](=O)[O-])c(NS(=O)(=O)c2cccc(C(=O)O)c2)cc1-c1cccnc1,NF-kB SEAP reporter activity,RAW-Dual [1]; [4],0.932
same,NF-kB SEAP reporter activity,RAW-Dual [1]; [5],0.946
Cc1cc([N+](=O)[O-])c(NS(=O)(=O)c2cccc(C(=O)O)c2)cc1-c1cccnc1 (library stock concentration (final ~1000-fold dilution): 10 mM),NF-kB SEAP reporter activity,RAW-Dual [2]; agonist: LPS (TLR4) 0.1 ug/mL,1.12
same,NF-kB SEAP reporter activity,RAW-Dual [2]; [6],0.852
same,NF-kB SEAP reporter activity,RAW-Dual [2]; [7],1.02
same,NF-kB SEAP reporter activity,RAW-Dual [2]; [8],0.926
CC1(N)CCN(c2cnc(-c3cccc(Cl)c3Cl)c(N)n2)CC1.Cl,NF-kB SEAP reporter activity,RAW-Dual [1]; [4],1.11
same,NF-kB SEAP reporter activity,RAW-Dual [1]; [5],1.18
CC1(N)CCN(c2cnc(-c3cccc(Cl)c3Cl)c(N)n2)CC1.Cl (library stock concentration (final ~1000-fold dilution): 10 mM),NF-kB SEAP reporter activity,RAW-Dual [2]; agonist: LPS (TLR4) 0.1 ug/mL,1.2
same,NF-kB SEAP reporter activity,RAW-Dual [2]; [6],0.647
same,NF-kB SEAP reporter activity,RAW-Dual [2]; [7],0.778
same,NF-kB SEAP reporter activity,RAW-Dual [2]; [8],0.701
CC(C)(C)NCC(O)COc1cccc2c1CC(O)C(O)C2 (configuration not stated),NF-kB SEAP reporter activity,RAW-Dual [1]; [5],1.13
CC(C)(C)NCC(O)COc1cccc2c1CC(O)C(O)C2 (configuration not stated) (library stock concentration (final ~1000-fold dilution): 10 mM),NF-kB SEAP reporter activity,RAW-Dual [2]; agonist: LPS (TLR4) 0.1 ug/mL,1.07
same,NF-kB SEAP reporter activity,RAW-Dual [2]; [6],0.934
same,NF-kB SEAP reporter activity,RAW-Dual [2]; [7],1.09
same,NF-kB SEAP reporter activity,RAW-Dual [2]; [8],1.12
Cc1ccc(S(=O)(=O)/C=C/C#N)cc1 (library stock concentration (final ~1000-fold dilution): 10 mM),NF-kB SEAP reporter activity,RAW-Dual [3]; agonist: LPS (TLR4) 0.1 ug/mL,0.353 and 0.3
same,NF-kB SEAP reporter activity,RAW-Dual [3]; [6],0.186 and 0.207
same,NF-kB SEAP reporter activity,RAW-Dual [3]; [7],0.0881 and 0.0849
same,NF-kB SEAP reporter activity,RAW-Dual [3]; [8],0.148 and 0.193
COc1cc(-c2cc(-c3ccc(N4CCNCC4)cc3)cnc2C)cc(OC)c1OC,NF-kB SEAP reporter activity,RAW-Dual [1]; [4],1.28
same,NF-kB SEAP reporter activity,RAW-Dual [1]; [5],1.94
COc1cc(-c2cc(-c3ccc(N4CCNCC4)cc3)cnc2C)cc(OC)c1OC (library stock concentration (final ~1000-fold dilution): 10 mM),NF-kB SEAP reporter activity,RAW-Dual [2]; agonist: LPS (TLR4) 0.1 ug/mL,3.37
same,NF-kB SEAP reporter activity,RAW-Dual [2]; [6],0.202
same,NF-kB SEAP reporter activity,RAW-Dual [2]; [7],1.29
same,NF-kB SEAP reporter activity,RAW-Dual [2]; [8],1.57
